# Experimental data from patent US20060045883A1, “Anti-cancer vaccines” (priority 2004, published 2006).
# Where two headings read alike, the source gives them in different places.
# How the values were obtained:
# T2 cells = experiment: Peptide-specific cytotoxicity of peptide-elicited CTL lines against peptide-loaded T2 cells; conditions: T2 cells loaded with the same peptide; 4-hr assay, varying E:T
# Procedure: CTL cytotoxicity assay. A semiautomated minicytotoxicity assay was used to determine specific lysis as described previously (Molldrem, 2000; Molldrem et al., 1996). Briefly, effector cells were prepared in doubling dilutions from 6×10^3 to 25×10^3 cells/well and were plated in 40 μl, 60-well Terasaki trays (Robbins Scientific, Sunnyvale, Calif., USA) with six replicates per dilution. Target cells (T2 cells, marrow-derived leukemic cells, or BM from a healthy donor) at a concentration of 2×10^6 cells/ml were stained with 10 μg/ml of Calcein-AM (Molecular Probes Inc.) for 60 min at 37° C. After washing three times in CM plus 10% AB, target cells were resuspended at 10^5 cells/ml, and 10^3 target cells in 10 μl medium were added to each well containing effector cells. Wells with target cells alone and medium alone were used for maximum (max) and minimum (min.) fluorescence emission, respectively. After 4 hr incubation at 37° C. in 5% CO2, 5 μl FluoroQuench (One Lambda Inc., Canoga Park, Calif., USA) was added to each well, and the trays were centrifuged for 1 min at 60 g before measurement of fluorescence using an automated CytoFluor II plate reader (PerSeptive Biosystems, Framingham, Mass., USA). The percentage of lysis was calculated as follows: % lysis={1−[(mean experimental mission−mean min.)/(mean max−mean min.)]}×100%.
# Induction of Primary CTL responses to peptides. These peptides were next used to stimulate T cells specific for peptide-coated targets. PBMC from a normal healthy donor heterozygous for HL-A2.1 were stimulated with peptide-pulsed T2 cells. The T2 cell line has been used by others as an antigen presenting cell for the generation of peptide-specific CTL. Briefly, T2 cells (which co-express the costimulatory molecule B7.1) were washed 3 times in serum-free RPMI culture media supplemented with penicillin/streptomycin and glutamine (CM) and incubated with peptide at 20 μg/mL for 2 hr in CM.
# The five MPO peptides discussed above, were used to stimulate T cells specific for peptide-coated targets. […]
# [1] = system: PBMC from an HLA-A2.1+ healthy donor; conditions: for tetramer staining decay t1/2: 4° C., BB7.2 present
sequence,measurement,setting,value
LLSYFKQPV [MY3],peptide-specific lysis by CTL line generated against the peptide,T2 cells,No peptide specific CTL lines could be elicited
SLWRRPFNV [MY1],peptide-specific lysis by CTL line generated against the peptide,T2 cells,No peptide specific CTL lines could be elicited
VLQELNVTV [PR1],"fold longer t1/2, CTL elicited with 0.2 μM vs 20 μM PR1",[1],3 fold
same,high intensity PR1/HLA-A2 tetramer-staining CTL elicited,"[1]; 0.2 μM PR1, weekly stimulation for 28 days",1.3%
same,low avidity PR1-specific CTL elicited,"[1]; 20 μM PR1, weekly stimulation for 28 days",3.1%
same,bulk culture CTL double-positive for anti-CD8 and PR1-tetramer,[1]; 32 day-old PR1-stimulated CTL culture,4.3%
same,median channel of fluorescence (MCF) of tetramer staining,[1]; CTL elicited with 0.2 μM PR1,293
same,median channel of fluorescence (MCF) of tetramer staining,[1]; CTL elicited with 2 μM PR1,211
same,median channel of fluorescence (MCF) of tetramer staining,[1]; CTL elicited with 20 μM PR1,93
same,tetramer staining decay t1/2,[1]; PR1-CTL elicited with 0.2 μM PR1,58 min
same,tetramer staining decay t1/2,[1]; PR1-CTL elicited with 20 μM PR1,19 min
same,fraction of CTL line specific for PR1 (PR1-tetramer+ CD8+),[1]; day 17 CTL line elicited against PR1,2.4%
same,PR1-CTL induced,[1]; stimulation with ≦0.02 μM PR1,< 0.1%
LIQPFMFRL [MY5],peptide-specific lysis by CTL line generated against the peptide,T2 cells,No peptide specific CTL lines could be elicited
